Laboratory results from patent publication US10287617B2, “Methods for in vitro—in vivo efficacy determination” (COLORADO STATE UNIVERSITY RESEARCH FOUNDATION, priority 2014, dated 2019).

Experimental: Human plasma using lithium heparin as anticoagulant was provided by the EFS (Etablissement Français du Sang) of Montpellier, France. Plasma was spiked with the compound in order to obtain a final drug concentration of 100 ng/mL (expressed as non-salified compound). The spiked plasma (dedicated to C1h and C4h) was then incubated at 37° C. for 1 h and 4 h. Plasma samples were analyzed by LC-MS/MS following protein precipitation. The limit of quantification for compounds was 10 ng/mL.
10 μL of the sample was injected to Luna Phenomenex C8 (50 mm×2.0 mm, 3 μm). […] MS/MS condition used for detection: Finnigan TSQ Quantum disco instrument, Excalibur version 2.0 acquisition system, ESI positive ion ionization mode. The mean percent of difference between C1h or C4h and C0 concentrations was calculated. M % D (%)=100×[(C1h or C4h)−C0]/C0
The compounds were considered as stable if the mean percent of difference between C4h and C0 concentrations was less than 20%.
As described previously^19, blood used in the assay was collected using lithium heparin as anticoagulant. Plasma spiked with the compound was analyzed by LC-MS/MS following protein precipitation. The limit of quantification for compounds was 10 ng/mL. Chromatographic conditions for LC were as described previously. The mean percent of difference between C1h or C4h and C0 concentrations were calculated using the formula; M % D (%)=100×[(C1h or C4h)−C0]/C0. The compounds were considered as stable if the mean percent of difference between C4h and C0 concentrations was less than 20%.

## CN(C)c1cc2nc(C3CCCCC3)[nH]c2cc1NC(=O)c1ccc(OC(F)(F)F)cc1 [SB-P17G-A20]
  Plasma Stability (% hydrolysis) Human (4 h): 0.1%
  Plasma Stability (% hydrolysis) Mouse (4 h): 24.4%
  plasma stability (4 hours) in humans: 99.9%

## CN(C)c1cc2[nH]c(C3CCCCC3)nc2cc1NC(=O)c1ccc(OC(F)(F)F)c(F)c1F [SB-P17G-A33]
  Plasma Stability (% hydrolysis) Mouse (4 h): −10.7%

## CCCCOC(=O)Nc1cc2nc(C3CCCCC3)[nH]c2cc1N(C)C [SB-P17G-C2]
  Plasma Stability (% hydrolysis) Human (4 h): 6.1%
